Measurements published in patent US20040053370A1 (Eli Lilly, published 2004).
Changes are numbered by the printed parent chain. Values belong to the binder of their own block, whether it stands above or below them.

Target: GLP-1 receptor
Assay: cell-based or functional assay

In Vitro Activity (% of Val^8-GLP-1): 1 % of Val^8-GLP-1
B1: Val^8-GLP-1-IgG1 (Fc fusion)
chain: HVEGTFTSDVSSYLEGQAAKEFIAWLVKGRGA[omitted - human IgG1 Fc]

In Vitro Activity (% of Val^8-GLP-1): 3.7 % of Val^8-GLP-1
B2: Val^8-Glu^22-GLP-1-IgG1 (Fc fusion)
chain: B1 chain with G16E
